The whole screen tested about 46,000 compounds, of which about 60 (0.1%) were called active. About 3% were inconclusive and are not listed. Calls come from the whole dose curve; as a rule, active = well fitted inhibition curve with a large enough effect; inconclusive = small, poorly fitted or top-dose-only effect; inactive = no such curve, though single readings can be large or run the other way. Some of the results follow.
Experiment: Primary qHTS assay for Inhibitors of ovarian cancer metastasis using an organotypic tumor microenvironment (TME) model.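 For activity change, negative = inhibition: plate controls were DMSO wells for no effect and tomatine positive control wells for full effect.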 Note: nearly all actives have a fitted effect of over 65% in size.
Settings: SKOV3ip1-GFP adhesion/invasion on 3D omental model, fluorescence; series mostly up to 45.8 µM; activity change, negative = inhibition: at the top concentration
Outline: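 A 3D layer of primary human omental fibroblasts, mesothelial cells, fibronectin and collagen I, grown 48 hr, received SKOV3ip1-GFP cells in serum-free medium plus compounds at 0.36-46 umol/L. After 2 hr RT and 16 hr 37 C, fixed adherent GFP cells were counted; normalized to DMSO and tomatine.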

Activity change, negative = inhibition, inactive:
CCCCOc1ccc(C(=O)Nc2nc3c(s2)CC(C)CC3)cc1 (configuration not stated) -4.08%
CCCc1cc(=O)[nH]c(Nc2ccc(C)c(O)c2)n1 0.648%
CCOC(=O)c1noc2ncnc(Nc3cccc(C(F)(F)F)c3)c12 7.38%
COC(=O)c1cccc(CN2C(=O)SC(Nc3ccc(Cl)cc3)C2=O)c1 (configuration not stated) 16.2%
CCCCNC(=O)CC1N=C2c3ccccc3N=C(SCC(=O)NCc3ccccc3Cl)N2C1=O (configuration not stated) -3.86%
Cc1ccc(NC(=O)CCC(=O)N2CCSc3ccccc32)cc1 6.77%
COc1cccc(C(=O)Nc2cccc(OCc3cc(=O)n4cccc(C)c4n3)c2)c1 -0.562%
Cc1cnc2c(c1SCC(=O)NCc1ccccc1Cl)c(=O)n(C)c(=O)n2C 20.6%
Cc1ccn2c(Nc3ccccc3C)c(-c3cccnc3)nc2c1 -24.3%
Cc1ccc(C)c(N2CCN(C(=O)c3nn(C)c4c3CS(=O)(=O)c3ccccc3-4)CC2)c1 -20%
O=C(COc1ccccc1)Nc1nnc(SCc2cc(=O)c3ccccc3[nH]2)s1 -0.381%
Clc1ccc(-c2noc(-c3cccnc3N3CCN(c4ccccc4)CC3)n2)cc1 -4.87%
COC(=O)c1ccc(NC(=O)CC2C(=O)N(c3ccc(C)cc3)C(=O)N2Cc2ccc(OC)cc2)cc1 (configuration not stated) -11.9%
CCc1ccccc1Nc1cc(C(=O)NCCCN(C)C2CCCCC2)c2ccccc2n1 -12.5%
Cc1ccc(C2c3[nH]c4ccccc4c3CCN2C(=O)CCc2ccccc2)cc1 (configuration not stated) -16%
Cn1c(=O)c(=O)n(C)c2cc(S(=O)(=O)Nc3ccc(Cl)c(C(F)(F)F)c3)ccc21 -5.01%
O=C(CC(NCc1cccnc1)C(=O)O)Nc1ccc(O)cc1 (configuration not stated) -3.85%
CCOc1ccc(CCNC(=O)C2CCN(Cc3nc(-c4ccccc4C)oc3C)CC2)cc1OCC 4.39%
CCN(C(=O)CSc1nc2ccccc2n1CC(=O)N1CCCC(C)C1)c1ccccc1 (configuration not stated) -4.79%
Cc1cc(=O)oc2cc(OCC(=O)Nc3c(C(C)C)cccc3C(C)C)ccc12 -6.81%
COc1cc(OC)c(NC(=O)Cn2cnc3nc4c(cc3c2=O)CCCC4)cc1Cl 1.32%
Oc1ccc(C2=Cc3ccc(O)cc3OC2)cc1 4.46%
CCOc1ccc(CNC(=O)Cc2ccc(NC(=O)N3CCCCc4ccccc43)cc2)cc1OC 3.13%
Cc1ccc(NC(=O)C2CCC(CNS(=O)(=O)c3ccc4c(c3)C(C)(C)C(=O)N4C)CC2)cc1 (configuration not stated) -10.3%
O=C(CCCCCn1c(=O)[nH]c2ccccc2c1=O)NCc1ccc(Cl)cc1 4.63%
Cc1cc(C)c(NC(=O)Nc2csc3c2CCCC3)c(C)c1 1.17%
COc1cc(NC(=O)CCNC(=O)Cn2cnc3ccccc3c2=O)cc(OC)c1OC 7.1%
CCCc1cc(N2CCN(c3ccc(OC)cc3)CC2)n2cnnc2n1 -2.38%
COc1ccc(CCn2c(=O)c3cccnc3n(CC(=O)Nc3c(C)cc(C)cc3C)c2=O)cc1OC 3.82%
Fc1ccc(-n2ncc3c(N4CCN(c5ccccc5F)CC4)ncnc32)cc1 -1.25%
Cc1sc2ncn(CC(=O)N(C)c3cccc(C(F)(F)F)c3)c(=O)c2c1S(=O)(=O)N1CCN(c2ncccn2)CC1 3.53%
CCN(CC)C(=O)COc1ccc(-c2nnc(Nc3ccc(OC)c(C(=O)NC)c3)c3ccccc23)cc1 -9.09%
O=C(O)c1cc(=O)c2c(OCC(O)COc3cccc4oc(C(=O)O)cc(=O)c34)cccc2o1 -19.1%
CSc1ccc(CCNC(=O)C2CCN(c3ncnc4c3nc3n4CCCCC3)CC2)cc1 4.95%
O=C(CCn1ccc2cc(S(=O)(=O)N3CCCC3)ccc21)NCc1ccccc1Cl -16.7%
CCn1nc(C)c2c(-c3ccccc3)cc(=O)n(C(C)C(=O)NCCc3ccccc3)c21 (configuration not stated) 3.62%
Cc1cc(=O)oc2c3c(ccc12)OCN(Cc1ccc(Cl)cc1)C3 9.46%
Fc1ccccc1Nc1ncnc2c1nc1n2CCCCC1 -2.12%
O=C(NCCc1ccc(Cl)cc1)c1ccc2c(c1)N(Cc1cccc(Cl)c1)C(=O)c1ccccc1S2(=O)=O -1.58%
COc1cccc(-c2nnc3sc(CN4CCCCC4)cn23)c1 -20.8%
CCC1CCCCN1C(=O)Cn1c(=O)n(CCCCCC(=O)NCc2ccccc2Cl)c(=O)c2sccc21 (configuration not stated) -0.927%
CCOc1ccc(NC(=O)CS(=O)(=O)Cc2nc(-c3ccc(C)cc3)oc2C)cc1 -9.45%
O=C(COc1ccccc1)Nc1ccc2nc(SCC(=O)N3CCCC3)sc2c1 -4.04%
COc1ccc(C2CC(=O)Oc3c2c(=O)n(C)c2ccccc32)c(OC)c1OC (configuration not stated) -6.37%
CCCCc1nc2cc(C=CC(=O)NO)ccc2n1CCN(CC)CC -9.92%
CCCCOc1ccc(CC(=O)NO)cc1 -10.8%
COc1ccc(OC)c2sc(N(CCCN(C)C)C(=O)c3ccco3)nc12 -23.3%
COc1ccc(C2c3c(oc4ccccc4c3=O)C(=O)N2c2nc(C)c(C)s2)cc1 (configuration not stated) -11%
COc1ccc(C2c3c(-c4ccc(F)cc4)n[nH]c3C(=O)N2c2ccccc2)cc1OC (configuration not stated) -2.29%
CCOc1ccc(CCNC(=O)c2cc3c(-c4ccccc4F)nn(C)c3s2)cc1OCC -18.5%
COC(=O)c1cc(C)nc2c1c(=O)nc(SCc1c(C)cc(C)cc1C)n2C1CC1 -6.88%

outcome, inactive:
COCCNC(=O)c1ccc2c(c1)N(Cc1c(F)cccc1Cl)C(=O)c1ccccc1S2
O=C(Nc1ccccc1C(F)(F)F)N1CCC2(CC1)Oc1ccccc1C(=O)N2Cc1ccccc1F
CC(C)(Oc1ccc(Cl)cc1)C(=O)Nc1nnc2n1CCS2
CCOc1ccc(NC(=O)Cn2cc(C(=O)c3ccccc3)c(=O)c3cc4c(cc32)OCCO4)cc1
CC(C)(C)c1ccc(C(=O)N2CCN(Cc3cc(=O)n4nc(-c5ccccc5F)sc4n3)CC2)cc1
CCC(=O)N1CCc2cc(Br)cc(S(=O)(=O)NCc3ccccc3)c21
COc1ccccc1-c1nc(SCC(=O)Nc2ccc(C)c(C)c2)n[nH]1
CCc1nn2c(=O)cc(COC(=O)c3ccccc3NC(=O)c3cccs3)nc2s1
COC(=O)c1ccc(NC(=O)CC2C(=O)N(c3cccc(C)c3)C(=O)N2C2CCCC2)cc1 (configuration not stated)
Cc1ccccc1CNC(=O)CCSCc1cnn(-c2ccccc2)c1-n1cccc1
CCOC(=O)c1ccc(NC(=O)c2ccc(-c3cccc(Cl)c3C)o2)cc1

Reference: PubChem BioAssay AID1963576 (National Center for Advancing Translational Sciences (NCATS), 2024)
